# Screen size: about 310,000 compounds; about 2,200 (0.71%) showed an effect of 50% or more. The effect is printed as a negative number. Some of the results follow.
# Target: human ether-à-go-go-related gene (hERG) potassium channel (human, UniProt Q12809)
# Assay: primary screen, population patch clamp on CHO cells stably expressing hERG
# human ether-à-go-go-related gene (hERG) potassium channel, sequence (Q12809 whole entry, looked up): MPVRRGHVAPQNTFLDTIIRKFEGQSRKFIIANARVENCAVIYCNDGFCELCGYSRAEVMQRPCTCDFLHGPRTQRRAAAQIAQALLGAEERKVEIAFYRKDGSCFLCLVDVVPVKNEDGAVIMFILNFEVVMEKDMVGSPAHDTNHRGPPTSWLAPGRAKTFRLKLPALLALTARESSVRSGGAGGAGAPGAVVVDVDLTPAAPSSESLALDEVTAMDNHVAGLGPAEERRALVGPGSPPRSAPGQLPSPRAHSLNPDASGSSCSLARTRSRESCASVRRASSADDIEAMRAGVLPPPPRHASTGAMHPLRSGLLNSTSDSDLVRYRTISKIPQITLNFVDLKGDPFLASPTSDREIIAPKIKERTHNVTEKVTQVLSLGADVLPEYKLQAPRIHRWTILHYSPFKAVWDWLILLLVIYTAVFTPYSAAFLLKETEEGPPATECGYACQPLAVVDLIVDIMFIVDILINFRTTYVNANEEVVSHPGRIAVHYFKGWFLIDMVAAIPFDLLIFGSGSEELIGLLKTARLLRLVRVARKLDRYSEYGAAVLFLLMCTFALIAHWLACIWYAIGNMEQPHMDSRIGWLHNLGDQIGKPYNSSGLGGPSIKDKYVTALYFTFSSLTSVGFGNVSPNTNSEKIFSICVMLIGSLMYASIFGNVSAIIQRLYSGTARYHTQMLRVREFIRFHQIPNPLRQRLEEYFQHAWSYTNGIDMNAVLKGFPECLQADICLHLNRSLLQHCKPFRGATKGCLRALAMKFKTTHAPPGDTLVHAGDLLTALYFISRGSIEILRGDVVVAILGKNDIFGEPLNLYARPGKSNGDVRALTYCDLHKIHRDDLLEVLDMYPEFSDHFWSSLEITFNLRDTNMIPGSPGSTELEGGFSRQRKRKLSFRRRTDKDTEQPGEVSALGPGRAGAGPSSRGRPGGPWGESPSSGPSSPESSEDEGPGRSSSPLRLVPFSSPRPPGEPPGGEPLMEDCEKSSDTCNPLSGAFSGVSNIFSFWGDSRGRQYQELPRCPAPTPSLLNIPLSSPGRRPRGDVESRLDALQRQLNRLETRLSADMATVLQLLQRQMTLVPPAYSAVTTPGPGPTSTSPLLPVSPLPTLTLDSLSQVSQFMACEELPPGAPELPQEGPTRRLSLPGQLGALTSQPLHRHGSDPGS
row,Compound,"hERG current change (%, negative = inhibition) at 1uM [%]"
1,O=C(COC(=O)CN1C(=O)C2CCCCC2C1=O)NCc1ccc(Cl)cc1Cl (centres unmarked),10.4
2,O=C(CSc1nc2ccccc2c(=O)n1-c1ccccc1Cl)Nc1cccc(S(=O)(=O)N2CCOCC2)c1,11.4
3,CCN(CC)c1ccc(/C=C2/C(=O)NC(=O)N(Cc3ccco3)C2=O)cc1,-16.9
4,Cc1cccc(OP(=O)(Nc2c(C)n(C)n(-c3ccccc3)c2=O)Oc2cccc(C)c2)c1,7.63
5,CCOC(=O)C1=C(C)OC(N)=C(C#N)C1c1ccc(O)c(OC)c1 (centres unmarked),3.42
6,CCC1CCCCN1C(=O)CCc1nnc(Cc2cc(OC)ccc2OC)o1 (centres unmarked),11.3
7,CC(=O)Oc1ccccc1C(=O)N(C1CCCCC1)C1CCCCC1,16.1
8,Cc1cc(NC(=O)CSc2nc(N)c(NC(=O)c3ccccc3)c(=O)[nH]2)no1,8.24
9,O=C(Nc1cccc(-c2ccc(N3CCCCC3)nn2)c1)c1ccc(Br)o1,10.6
10,COc1ccc2[nH]c3c(c2c1)CCN1C(=O)N([C@@H](C)C(=O)NCCc2ccc(F)cc2)C(=O)[C@]31C,-1.92
11,CCn1c(SCC(=O)N(C)CC(=O)Nc2ccc(OC)cc2)nnc1-c1ccco1,17.6
12,Cc1cccc(N2CCN(C(=S)c3ccccc3)CC2)c1,17.2
13,O=[N+]([O-])c1ccc(CNc2ccc(Cl)cc2)s1,12.4
14,NC(=O)NC(=O)COC(=O)CN1C(=O)C2CCCCC2C1=O (centres unmarked),7.18
15,CCOC(=O)c1cc(NC(=O)N(C(C)C)C(C)C)c(C)nc1C,-1.03
16,CCOC(=O)c1c(NC(=O)CSc2nnc(C)c(=O)[nH]2)sc(C)c1-c1ccc(C)cc1,3.16
17,CCOC(=O)c1c(S(=O)(=O)Nc2ccccc2OCC)c(C)n(C)c1C,1.3
18,Cc1ccc2c(CC(=O)NNC(=O)c3ccccc3)coc2c1,12
19,CC(=O)Oc1ccc2c(=O)c(/C=N/c3cc(=O)[nH]c(=S)[nH]3)coc2c1,-0.904
20,COc1ccccc1NS(=O)(=O)c1ccc(N/N=C(\C)C(C)C)c([N+](=O)[O-])c1,4.93
21,COc1cc(C2C(C#N)=C(N)N(c3cccnc3)C3=C2C(=O)CC(C)(C)C3)ccc1O (centres unmarked),1.59
22,O=c1ccc(-c2ccc(S(=O)(=O)NCC3CCN(Cc4cccc(F)c4)CC3)s2)n[nH]1,1.82

row,Compound,"hERG current change (%, negative = inhibition) at 1uM [%]"
1,CCN(CC)c1ccc(N/C(N)=N/c2nc(C(F)(F)F)cc(=O)[nH]2)cc1,12.2
2,Cc1cc[n+](-c2[nH]c(=O)sc2/C=N/N=C(\[O-])c2ccccc2)cc1,7.51
3,Cc1c(OCC(=O)N[C@H](C(=O)O)c2ccccc2)ccc2c3c(c(=O)oc12)CCCC3,15.2
4,C=CCn1c(SCC(=O)O)nc2sc(CC)cc2c1=O,-3.86
5,COc1cccc(-c2ncc3ccccc3c2COC(=O)c2cccc(Br)c2)c1,17.6
6,Cc1cc(OCC(=O)NC2CC(C)(C)NC(C)(C)C2)c2c(C)cc(=O)oc2c1,-3.8
7,Cc1noc(C)c1COc1ccccc1C(=O)NCCc1ccc(S(N)(=O)=O)cc1,4.96
8,CC1(c2ccccc2)CC(C)(C)N2C(=O)C3(C(C#N)=C(N)Oc4cc(O)ccc43)c3cccc1c32 (centres unmarked),6.18
9,Cc1cccc(N2CC(O)(c3cccs3)[N+]3=C2CCCC3)c1C.[Br-] (centres unmarked),-4.09
10,CCOC(=O)c1nc(NCCc2ccccc2)sc1C,7.63
11,O=C(O)C1CCN(C(=O)COc2ccc(Br)cc2)CC1,14.7
12,C=CCOc1ccc(CNn2cn[nH]c2=S)cc1,8.58
13,CC1CCc2c(sc(NC(=O)c3nc4ncccn4n3)c2C#N)C1 (centres unmarked),7.06
14,O=C(NC(Cc1ccccc1)C(=O)O)/C(=C/c1ccccc1)NC(=O)c1ccco1 (centres unmarked),12.2
15,COC(=O)c1ccccc1NC(=O)CN(C)Cc1ccccc1,21.1
16,COc1cc(NS(=O)(=O)c2ccc(NC(=O)c3ccc(Cl)cc3Cl)cc2)ncn1,-0.314
17,C=CCNc1nc(C(=O)OCC(=O)Nc2ccccc2C(F)(F)F)cs1,5.13
18,O=C(Nc1ccc(Br)cn1)c1ccc2nccnc2c1,9.13
19,COC(=O)C1C(=O)C=C(N2CCOCC2)CC1(C)C (centres unmarked),12.8
20,Cc1c(C(=O)N2CCCC(C)C2)sc2ncnc(N3CCCCC3C)c12 (centres unmarked),7.34
21,CC(C)Oc1cc(S(=O)(=O)N2CCCCC2)ccc1N,7.94
22,Cc1cccc(C(=O)OCC(=O)NC(=O)NCc2ccccc2)c1,3.22

row,Compound,"hERG current change (%, negative = inhibition) at 1uM [%]"
1,COc1ccccc1OCCCOc1ccc([N+](=O)[O-])cc1Cl,9.1
2,CCC(C)(C)NC(=O)C(c1ccc(OC)cc1)N(C(=O)CCC(=O)Nc1cc(C)on1)c1ccc(F)cc1 (centres unmarked),13.3
3,COc1ccccc1NC(=O)CON=C(N)CC(=O)NC1CCCCC1,7.64
4,CC(=O)N1CC(C)Sc2ccc(S(=O)(=O)NCCc3ccccc3)cc21 (centres unmarked),9.12
5,O=C(COC(=O)c1ccccc1[N+](=O)[O-])Nc1cccnc1Cl,16.3
6,Cc1cccc(C)c1OCc1nnc2c3cnn(C)c3ncn12,9.32
7,O=C(/C=C/c1ccccc1Cl)Nc1ccncc1,8.13
8,Cc1cc(=O)[nH]c(SCC(=O)Nc2ccc(C(=O)O)cc2)n1,12.5
9,CCCCNC(=S)NC(=O)c1ccc([N+](=O)[O-])cc1,-5.53
10,CN(CC(=O)Nc1cccc(F)c1)C(=O)CN1c2cccc3cccc(c23)S1(=O)=O,8.8
11,O=C(CSc1ccccc1C(=O)O)c1ccc(Cl)cc1,21.7
12,CCOC(=O)c1cc2cc(-c3c(C(=O)OCC)oc4cc(O)cc(O)c4c3=O)ccc2o1,2.57
13,CCOc1ccc(NC(=O)CSc2nc3ccccc3c(=O)n2Cc2cccs2)cc1,6.68
14,COc1ccc(CN2CCn3nc(C(=O)NC4CC4)cc3C2=O)cc1,12.1
15,CC(=O)c1cccc(NC(=O)N2CCC(C(=O)c3ccc(F)cc3)CC2)c1,3.08
16,Cc1cccc(-n2c(-c3ccc([N+](=O)[O-])cc3)nc3ccccc3c2=O)c1,2.02
17,CCOC(=O)C1=C(C)NC2=C(C(=O)C(C(=O)OC)C(C)C2)C1c1ccc(OC)c(O)c1 (centres unmarked),14.9
18,CCOc1ccccc1NS(=O)(=O)c1ccc2c(c1)NC(=O)CCS2,11
19,Cc1cc(C)c(S(=O)(=O)NCCc2ccncc2)c(C)c1,7.62
20,COc1ccccc1NC(=O)Nc1ccncc1,18.4
21,CC(C)c1csc(CN2CCCC(CCC(=O)NCc3ccccc3F)C2)n1 (centres unmarked),3.75
22,CN(C)C1(CNC(=O)CC(NC(=O)c2ccccc2Cl)c2ccccc2)CCCCC1 (centres unmarked),1.14

row,Compound,"hERG current change (%, negative = inhibition) at 1uM [%]"
1,O=C(Nc1cccc(NC(=O)C2C3CC4OC(=O)C2C4C3)c1)c1ccccc1 (centres unmarked),13.3
2,COc1ccc2c(c1)cc(C(=O)O)n2C,-5.19
3,O=C(CCCN1C(=O)/C(=C/c2ccco2)SC1=S)Nc1ccccc1C(=O)O,-1.06
4,Cc1cc(C)nc(-n2ncc3c2CC(c2ccccc2)CC3=O)n1 (centres unmarked),0.845
5,Cc1[nH][nH]c(=O)c1/C=N/N1CCOCC1,12.4
6,C/C(=N\NC(=O)c1c(Cl)c(C)nn1C)c1cccc(NC(=O)c2cccc(F)c2)c1,14
7,Cc1noc(NS(=O)(=O)c2ccc(N/C=C/C(=O)c3ccncc3)cc2)c1C,-7.38
8,O=C(c1cnccn1)N(c1ccccc1)C1(C(=O)NC2CCCC2)CCCCC1,8.37
9,C=CCn1c(SCC(=O)Nc2ccc(N3CCOCC3)cc2)nc2ccccc2c1=O,4.14
10,COc1ccc(OC)c(/C=N/NC(=O)CSc2nnc(C)n2-c2ccccc2)c1,3.55
11,CCOc1ccc(S(=O)(=O)N2CCC(C(=O)NCc3ccncc3)CC2)cc1Cl,5.48
12,Cc1ccc(C(=O)N(NC2=NS(=O)(=O)c3ccccc32)S(=O)(=O)c2ccc(C)cc2)cc1,6.87
13,COc1cccc(C2N(c3ccc(Cl)c(Cl)c3)C(=O)C3CCCN32)c1OC (centres unmarked),4.09
14,O=C(Nc1ccc(S(=O)(=O)Nc2nccs2)cc1)c1cc(-c2ccccc2)nc2ccccc12,13
15,Cn1c(C(=O)N2CCN(c3cccc(C(F)(F)F)c3)CC2)cc2sccc21,3.59
16,O=C(COC(=O)c1cnccn1)c1ccc([N+](=O)[O-])cc1,7.66
17,O=C1OC2CC3CC1CC(O)(C3)C2 (centres unmarked),7.99
18,O=C(O)CSc1cnc2ccccc2n1,1.35
19,Cc1cccc(-n2c(O)c(C=NCCCN3CCOCC3)c3ccccc3c2=O)c1,-7.46
20,COc1ccc(C2CC(c3ccccc3)Nc3nc(NC(=O)c4cccs4)nn32)cc1 (centres unmarked),13.8
